Source: PubChem BioAssay (NCATS)
The inconclusive results got no clear call from the source; some entries with a clear call stand among them for comparison. For part of these data: A potency beside an inconclusive call is a rough fit, not a confirmed value. Calls of active or inactive are those of the source. Unless noted, calls follow the shape of the dose curve; as a rule, active = well fitted curve in the direction sought with a large enough effect; inconclusive = small, poorly fitted or top-dose-only effect, or another doubt; inactive = no such curve, though single readings can be large; an effect the other way counts as inactive or inconclusive.

Assays:
[1] = P-glycoprotein substrates identified in KB-8-5-11 adenocarcinoma cell line, qHTS therapeutic library screen (AID 1346987); also: nearly all actives have a fitted effect of over 65% in size; also: potency is read from the fitted curve at half-maximal effect
Procedure, shortened: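 Steps: plate 500 KB-8-5-11 cells/well in DMEM + 10% FCS (colchicine removed); pin compounds in dose-response; incubate 72 h, 37 degree C, 5% CO2; add CellTiter-Glo, 5 min; read luminescence.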

[2] = test system: Zika virus NS2B-NS3 protease (unlinked complex); assay: Primary screen GU Rhodamine qHTS for Zika virus inhibitors: Unlinked NS2B-NS3 protease assay (AID 1347159); also: potency is read from the fitted curve at half-maximal effect; nearly all actives have a fitted effect of over 60% in size
Procedure, shortened: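 Noncovalent NS2B hydrophilic domain–NS3 protease domain complex (25 nM) preincubated 15 min at room temperature with compounds (up to 114 microM) in 10 mM Tris-HCl pH 8.0, 0.01% Tween 20; 1.5 microM Rhodamine110 substrate added, fluorescence change over 15 min fitted to Hill equation.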

[3] = Primary fluorescence-based thiol-reactive (MSTI) qHTS assay for identification of artifact compounds. (AID 1845221); also: potency is read from the fitted curve at half-maximal effect;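 also: thiol-reactive compounds lower the probe fluorescence signal; nearly all actives have a fitted effect of over 65% in size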
Procedure, shortened: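 Probe: MSTI 4 uM, PBS pH 7.4, 2% DMSO. Incubation 1 h, RT, light-protected. Readout fluorescence 525/598 nm.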

[4] = test system: Nanoluciferase (engineered Oplophorus gracilirostris luciferase); assay: Primary Nanoluciferase (NLuc) qHTS assay for identification of artifact compounds. (AID 1845222);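 also: NLuc secreted into diluted conditioned medium of S16 cells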; also: potency is read from the fitted curve at half-maximal effect;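 as to activity, negative = inhibition: 0% = DMSO and -100% = no enzyme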
Procedure, shortened: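 NLuc from S16 cell medium (1:55) plus test compounds, 15 min, room temperature. Luminescence after Nano-Glo (1:100) addition, 5 min.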

KB-3-1 = assay: Cytotoxic Profiling of Annotated Libraries Using Quantitative High-Throughput Screening (AID 1296008); conditions: Five cell lines viability, CellTiter-Glo ATP luminescence, 48-72 h; max response: active compounds read low; also: nearly all actives have a fitted effect of over 60% in size; also: potency is read from the fitted curve at half-maximal effect
Procedure, shortened: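 Cytotoxicity was measured as CellTiter-Glo ATP luminescence, read after 10 min at room temperature. Compound treatment of the cells lasted 48 or 72 hr at 37 degrees Celsius in a qHTS format.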

Es-2 = assay: Primary qHTS to identify gynecologic anti-cancer compounds using libraries of approved drugs and bioactive compounds (AID 1345084); conditions: Gynecologic cancer cell panel viability, ATPlite luminescence, 48 h; series mostly up to 57.5 µM; also: nearly all actives have a fitted effect of over 55% in size; also: potency is read from the fitted curve at half-maximal effect; as to activity change, negative = cytotoxicity: % is scaled to controls: 0 for no effect and ±100 for the full control effect
Procedure, shortened: (§1)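 Cell viability after 48 h drug treatment, ATPlite luminescence readout; five doses.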

SKOV3 = assay: as above; conditions: Gynecologic cancer cell panel viability, ATPlite luminescence, 48 h; series mostly up to 57.5 µM
Procedure, shortened: as §1

[5] = Primary redox qHTS assay for identification of artifact compounds. (AID 1845223); conditions: Amplex Red/HRP redox cycling with DTT, fluorescence; redox activity (% of DA3003): at 53.8 µM (top of the series); also: potency is read from the fitted curve at half-maximal effect;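 as to redox activity (% of DA3003): 0% = DMSO and 100% = reference compound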
Procedure, shortened: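 Amplex Red (25 uM) and HRP (250 mU/mL) in HBSS, with compounds for 15 min, then 250 uM DTT for 30 min, room temperature, dark. Fluorescence 525/598 nm read; normalized to DMSO and 10 uM DA3003; Hill fit.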

CAOV3 = assay: Primary qHTS to identify gynecologic anti-cancer compounds using libraries of approved drugs and bioactive compounds (AID 1345084); conditions: Gynecologic cancer cell panel viability, ATPlite luminescence, 48 h; activity change, negative = cytotoxicity: at 57.5 µM (top of the series); also: nearly all actives have a fitted effect of over 55% in size; also: potency is read from the fitted curve at half-maximal effect; as to activity change, negative = cytotoxicity: % is scaled to controls: 0 for no effect and ±100 for the full control effect
Procedure, shortened: as §1

[6] = ZIKV-mCherry secondary qHTS for Zika virus inhibitors (AID 1347158); also: potency is read from the fitted curve at half-maximal effect
Procedure, shortened: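 Vero, 5,000 cells/well, o/n 37 °C; cpd pin-transferred in DMSO; ZIKV-mCherry MOI 1, 48-72 h 37 °C; 32% PFA stock fix, Hoechst; imaged 10x DAPI/mCherry; mCherry+ threshold 450 RFU; % infection.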

[7] = test system: Zika virus NS2B-NS3 protease (linked construct); assay: Primary screen NINDS Rhodamine qHTS for Zika virus inhibitors (AID 1347160); conditions: activity change, negative = inhibition: at 57.1 µM (top of the series) unless noted; also: nearly all actives have a fitted effect of over 55% in size; also: potency is read from the fitted curve at half-maximal effect
Procedure, shortened: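 Purified linked NS2B-NS3 protease (NS2B hydrophilic domain joined to NS3 protease by flexible linker), 25 nM in 10 mM Tris-HCl pH 8.0, 0.01% Tween 20. Compounds titrated, 15 min preincubation at room temperature; 1.5 microM Rhodamine110 substrate, FITC fluorescence change over 15 min.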

[8] = Vero cells viability qHTS for Zika virus inhibitors (AID 1347167); also: % is scaled to controls: 0 for no effect and ±100 for the full control effect
Procedure, shortened: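 Compounds were tested in concentration series on cells grown in DMEM containing 4% FBS. After 24 to 48 hours, cellular ATP was measured by luminescence with CellTiter Glo.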

[9] = Tertiary RLuc qRT-PCR qHTS assay for Zika virus inhibitors (AID 1347169)
Procedure, shortened: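 Vero cells (1,000/well) infected with recombinant ZIKV-RLuc (Cambodian) at MOI 1-2 after compound addition, 48-72 hrs at 37 degrees C. Live-cell Renilla luciferase substrate added; luminescence read after 1-1.5 hrs.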

[10] = target: Cytochrome P450 2D6 (Homo sapiens) (UniProt P10635); assay: Cytochrome P450 family 2 subfamily D member 6 (CYP2D6) small molecule antagonists: luciferase biochemical (cell-free) qHTS assay (AID 1645840; active = well fitted curve in the direction sought with a large enough effect in the repeat runs; inconclusive = weak or mixed curves; inactive = no such curve, though single readings can be large; an effect the other way counts as inactive or inconclusive; also: nearly all actives have a fitted effect of over 55% in size; also: potency is read from the fitted curve at half-maximal effect)
Procedure, shortened: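 P450-Glo luminescent screen: recombinant CYP2D6 enzyme–proluciferin substrate mix preincubated with compound 10 min at room temperature, then NADPH regeneration added for 1 h at room temperature. Detection reagent added for 20 min; luciferin light read as relative luminescence units.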

[11] = target: Cytochrome P450 2C9 (Homo sapiens) (UniProt P11712); assay: Cytochrome P450 family 2 subfamily C member 9 (CYP2C9) small molecule antagonists: luciferase biochemical (cell-free) qHTS assay (AID 1645842; active = well fitted curve in the direction sought with a large enough effect in the repeat runs; inconclusive = weak or mixed curves; inactive = no such curve, though single readings can be large; an effect the other way counts as inactive or inconclusive)
Procedure, shortened: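 Luminescence, after 20 min with luciferin detection reagent, reflected CYP2C9 turnover during a 1 h NADPH-driven reaction at 37C. Enzyme-substrate mix contained 0.4% bovine serum albumin and was preincubated with compound 10 min at room temperature.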

[12] = target: Glutathione peroxidase 1 (Homo sapiens) (UniProt P07203); assay: Primary qHTS Assay for Inhibitors of Recombinant Selenoprotein Glutathione Peroxidase 1 (GPX1) (AID 1845191); conditions: activity, negative = inhibition: at 48.8 µM (top of the series); also: potency is read from the fitted curve at half-maximal effect; nearly all actives have a fitted effect of over 65% in size
Procedure, shortened: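 10 nM GPX1 + cpd, 30 min RT; start w/ 1 mM GSH, 0.5 mM cumene hydroperoxide, 0.5 mM NADPH, 100 nM GR, 0.01% BSA; buffer 50 mM Tris-HCl pH 7.5, 2 mM EDTA, 150 mM NaCl; Fl 340/450, 0 & 15 min.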

[13] = Primary qHTS for inhibitors of nuclear receptor binding SET domain protein 2 (NSD2) in an isogenic RCH-ACV NSD2 p.E1099K mutant (9B) (AID 1645876); also: potency is read from the fitted curve at half-maximal effect; nearly all actives have a fitted effect of over 70% in size
[14] = Primary qHTS for inhibitors of nuclear receptor binding SET domain protein 2 (NSD2) in an RCH-ACV wild type WT cells (2C) (AID 1645877); conditions: activity change, negative = cell killing: at 44.9 µM (top of the series) unless noted; also: potency is read from the fitted curve at half-maximal effect; nearly all actives have a fitted effect of over 70% in size
CASKI = assay: Primary qHTS to identify gynecologic anti-cancer compounds using libraries of approved drugs and bioactive compounds (AID 1345084); conditions: Gynecologic cancer cell panel viability, ATPlite luminescence, 48 h; series mostly up to 57.5 µM; also: nearly all actives have a fitted effect of over 55% in size; also: potency is read from the fitted curve at half-maximal effect; as to activity change, negative = cytotoxicity: % is scaled to controls: 0 for no effect and ±100 for the full control effect
Procedure, shortened: as §1
Tags tell the direction and shape of the fitted curve.

UniProt P10635, sequence (P10635 whole entry, looked up): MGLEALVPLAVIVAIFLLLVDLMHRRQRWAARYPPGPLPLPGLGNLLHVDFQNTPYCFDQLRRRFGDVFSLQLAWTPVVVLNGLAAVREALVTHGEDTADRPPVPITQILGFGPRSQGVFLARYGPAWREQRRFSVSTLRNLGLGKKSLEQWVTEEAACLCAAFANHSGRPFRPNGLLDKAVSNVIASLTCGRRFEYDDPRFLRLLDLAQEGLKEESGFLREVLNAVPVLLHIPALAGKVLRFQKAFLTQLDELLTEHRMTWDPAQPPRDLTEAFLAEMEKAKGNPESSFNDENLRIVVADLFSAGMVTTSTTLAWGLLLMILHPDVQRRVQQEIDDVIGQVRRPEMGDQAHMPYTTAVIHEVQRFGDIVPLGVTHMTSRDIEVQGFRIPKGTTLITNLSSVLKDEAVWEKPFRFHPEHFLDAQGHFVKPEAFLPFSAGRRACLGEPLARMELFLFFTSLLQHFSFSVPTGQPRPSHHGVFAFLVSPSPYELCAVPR
UniProt P07203, sequence (P07203 whole entry, looked up): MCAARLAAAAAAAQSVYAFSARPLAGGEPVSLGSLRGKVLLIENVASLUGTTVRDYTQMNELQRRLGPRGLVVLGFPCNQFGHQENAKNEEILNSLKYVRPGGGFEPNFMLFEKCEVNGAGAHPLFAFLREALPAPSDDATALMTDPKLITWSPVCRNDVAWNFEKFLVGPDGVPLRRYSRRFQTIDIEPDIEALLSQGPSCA
UniProt P11712, sequence (P11712 whole entry, looked up): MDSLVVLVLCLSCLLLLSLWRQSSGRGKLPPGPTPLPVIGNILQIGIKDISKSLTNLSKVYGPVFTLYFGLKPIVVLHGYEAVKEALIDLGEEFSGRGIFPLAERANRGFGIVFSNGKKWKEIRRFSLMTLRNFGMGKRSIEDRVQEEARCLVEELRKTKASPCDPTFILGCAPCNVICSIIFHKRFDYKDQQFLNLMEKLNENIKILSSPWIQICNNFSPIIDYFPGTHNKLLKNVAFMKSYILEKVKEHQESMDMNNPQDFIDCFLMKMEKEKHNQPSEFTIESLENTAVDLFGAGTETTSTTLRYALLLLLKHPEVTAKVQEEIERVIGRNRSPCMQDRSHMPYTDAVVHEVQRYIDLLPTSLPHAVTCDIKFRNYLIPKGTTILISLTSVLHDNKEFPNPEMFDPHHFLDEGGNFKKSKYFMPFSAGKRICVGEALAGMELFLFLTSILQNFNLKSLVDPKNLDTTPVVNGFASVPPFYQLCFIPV

O=C(NS(=O)(=O)c1ccc(Br)s1)c1ccc(Cl)cc1Cl
inconclusive: Potency [1] 14.6 µM [inhibitor, partial curve] | Potency [2] 44.7 µM [inhibitor, partial curve] | Potency [3] 3.77 µM [inhibitor, full curve, poor fit] | Potency (KB-3-1) 29.1 µM [inhibitor, single point] | Potency (SKOV3) 3.55 µM [rising, single point]
active: Potency [4] 6.75 µM
inactive: Potency (Es-2)

C=CC(C)(C)C12Nc3c(ccc4c3OC(C)(C)C=C4)C1(O)CC1C(=O)N3CCCC3C(=O)N12 (centres undefined)
inactive: Potency [1] | outcome (KB-3-1)
inconclusive: Potency [5] 11.6 µM [activator, partial curve] | Potency (CAOV3) 20 µM [cytotoxic, single point]

Cc1ccc2[nH]c(=O)c(C3=NN(C(=O)CCC(=O)O)C(c4ccc(Br)cc4)C3)c(-c3ccccc3)c2c1 (centres undefined)
inactive: Potency [1] | Potency [8] | Potency [10] | Potency [4] | max response (KB-3-1) 4.72% | Potency (CAOV3)
active: Potency [2] 6.31 µM | Potency [7] 3.16 µM | Potency [11] 26.8 µM
inconclusive: Potency [6] 14.1 µM [inhibitor, full curve, poor fit] | Potency [9] 37 µM [inhibitor, single point] | Potency [12] 20.2 µM [inhibitor, partial curve] | Potency (SKOV3) 39.8 µM [rising, single point]

Cc1ccccc1C(C(=O)NC1CCCCC1)N(C(=O)Cn1cnc2ccccc21)c1cccc(F)c1 (centres undefined)
active: Potency [1] 23.1 µM | Potency [13] 12.9 µM | Potency [14] 23 µM
inactive: Potency [7] | Potency [3] | Potency [5] | Potency (CASKI) | Potency (SKOV3)
inconclusive: Potency [10] 21.3 µM [inhibitor, single point] | Potency (KB-3-1) 25.9 µM [inhibitor, single point]

C/C=C/C=C/C=C/C(=O)N(C)C(C(=O)NC(C)C(=O)N1CCCC1C(N)=O)C(C)C (centres undefined)
inactive: Potency [7] | outcome (KB-3-1) | Potency (CASKI)
inconclusive: Potency [3] 5.82 µM [inhibitor, partial curve] | Potency [5] 16.4 µM [activator, partial curve, poor fit]
